# Data: the supplement of paper PMC8728848
# The list shows a part of the results.
# B1: Gal 4 (Mus musculus), P56470 (protein)
# chain: MAYVPAPGYQPTYNPTLPYYQPIPGGLNVGMSVYIQGVASEHMKRFFVNFVVGQDPGSDVAFHFNPRFDGWDKVVFNTLQGGKWGSEERKRSMPFKKGAAFELVFIVLAEHYKVVVNGNPFYEYGHRLPLQMVTHLQVDGDLQLQSINFIGGQPLRPQGPPMMPPYPGPGHCHQQLNSLPTMEGPPTFNPPVPYFGRLQGGLTARRTIIIKGYVPPTGKSFAINFKVGSSGDIALHINPRMGNGTVVRNSLLNGSWGSEEKKITHNPFGPGQFFDLSIRCGLDRFKVYANGQHLFDFAHRLSAFQRVDTLEIQGDVTLSYVQI
# Key:
# Assay in all cases: glycan array binding signal (z-score within array); higher = stronger binding
# Settings in all cases: glycan notation: IUPAC condensed, linker removed
# [1] = target: Neu5Ac(a2-6)Gal(b1-4)GlcNAc(b1-6)GalNAc
# In short: (§1)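 From the Consortium for Functional Glycomics database, 3228 arrays were curated, keeping only those whose protein sequence was available. Binding is given as a within-array Z-score averaged across arrays sharing a protein sequence and across linkers. Negative Z-scores can be read as non-binding.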
# [2] = target: Neu5Ac(a2-6)Gal(b1-4)GlcNAc(b1-6)[Gal(b1-3)GlcNAc(b1-3)]Gal(b1-4)Glc
# In short: as §1
# [3] = target: Neu5Ac(a2-6)Gal(b1-4)GlcNAc(b1-6)[Gal(b1-3)]GalNAc
# In short: as §1
# [4] = target: Neu5Ac(a2-6)Gal(b1-4)GlcNAc6S
# In short: as §1
# Neu5Ac(a2-6)GalNAc = target: Neu5Ac(a2-6)GalNAc
# In short: as §1
# [5] = target: Neu5Ac(a2-6)GalNAc(b1-4)GlcNAc
# In short: as §1
# [6] = target: Neu5Ac(a2-6)GalNAc(b1-4)GlcNAc6S
# In short: as §1
# [7] = target: Neu5Ac(a2-6)GlcNAc(b1-4)GlcNAc
# In short: as §1
# [8] = target: Neu5Ac(a2-6)GlcNAc(b1-4)GlcNAc(b1-4)GlcNAc
# In short: as §1
# Neu5Ac(a2-8)Neu5Ac = target: Neu5Ac(a2-8)Neu5Ac
# In short: as §1
# [9] = target: Neu5Ac(a2-8)Neu5Ac(a2-3)Gal(b1-3)GalNAc(b1-4)[Neu5Ac(a2-3)]Gal(b1-4)Glc
# In short: as §1
# [10] = target: Neu5Ac(a2-8)Neu5Ac(a2-3)Gal(b1-3)GalNAc(b1-4)[Neu5Ac(a2-8)Neu5Ac(a2-3)]Gal(b1-4)Glc
# In short: as §1
# [11] = target: Neu5Ac(a2-8)Neu5Ac(a2-3)Gal(b1-4)Glc
# In short: as §1
# [12] = target: Neu5Ac(a2-8)Neu5Ac(a2-3)Gal(b1-4)GlcNAc
# In short: as §1
# [13] = target: Neu5Ac(a2-8)Neu5Ac(a2-3)[Gal(b1-3)GalNAc(b1-4)]Gal(b1-4)Glc
# In short: as §1
# [14] = target: Neu5Ac(a2-8)Neu5Ac(a2-3)[GalNAc(b1-4)]Gal(b1-4)Glc
# In short: as §1
# [15] = target: Neu5Ac(a2-8)Neu5Ac(a2-8)Neu5Ac
# In short: as §1
# [16] = target: Neu5Ac(a2-8)Neu5Ac(a2-8)Neu5Ac(a2-3)Gal(b1-4)Glc
# In short: as §1
# [17] = target: Neu5Ac(a2-8)Neu5Ac(a2-8)Neu5Ac(a2-3)[Gal(b1-3)GalNAc(b1-4)]Gal(b1-4)Glc
# In short: as §1
# [18] = target: Neu5Ac(a2-8)Neu5Ac(a2-8)Neu5Ac(a2-3)[GalNAc(b1-4)]Gal(b1-4)Glc
# In short: as §1
# [19] = target: Neu5Ac(a2-8)Neu5Ac(a2-8)Neu5Ac(a2-8)Neu5Ac(a2-3)[GalNAc(b1-4)]Gal(b1-4)Glc
# In short: as §1
# [20] = target: Neu5Ac(a2-8)Neu5Gc(a2-3)Gal(b1-4)GlcNAc
# In short: as §1
# [21] = target: Neu5Ac(b2-6)Gal(b1-4)GlcNAc
# In short: as §1
# Neu5Ac(b2-6)GalNAc = target: Neu5Ac(b2-6)GalNAc
# In short: as §1
# [22] = target: Neu5Ac9Ac(a2-3)Gal(b1-3)GlcNAc
# In short: as §1
# [23] = target: Neu5Ac9Ac(a2-3)Gal(b1-4)GlcNAc
# In short: as §1
# [24] = target: Neu5Ac9Ac(a2-6)Gal(b1-4)GlcNAc
# In short: as §1
# [25] = target: Neu5Gc(a2-3)Gal(b1-3)GlcNAc
# In short: as §1
# [26] = target: Neu5Gc(a2-3)Gal(b1-3)[Fuc(a1-4)]GlcNAc
# In short: as §1
# Neu5Gc(a2-3)Gal(b1-4)Glc = target: Neu5Gc(a2-3)Gal(b1-4)Glc
# In short: as §1
# [27] = target: Neu5Gc(a2-3)Gal(b1-4)GlcNAc
# In short: as §1
# [28] = target: Neu5Gc(a2-3)Gal(b1-4)GlcNAc(b1-3)Gal(b1-4)GlcNAc(b1-2)Man(a1-3)[Neu5Gc(a2-3)Gal(b1-4)GlcNAc(b1-3)Gal(b1-4)GlcNAc(b1-2)Man(a1-6)]Man(b1-4)GlcNAc(b1-4)GlcNAc
# In short: as §1
# [29] = target: Neu5Gc(a2-3)Gal(b1-4)[Fuc(a1-3)]GlcNAc
# In short: as §1
# [30] = target: Neu5Gc(a2-6)Gal(b1-4)GlcNAc
# In short: as §1
# Neu5Gc(a2-6)GalNAc = target: Neu5Gc(a2-6)GalNAc
# In short: as §1
# [31] = target: Neu5Gc(a2-8)Neu5Ac(a2-3)Gal(b1-4)GlcNAc
# In short: as §1
# [32] = target: Neu5Gc(a2-8)Neu5Gc(a2-3)Gal(b1-4)GlcNAc
# In short: as §1
# [33] = target: Neu5Gc(a2-8)Neu5Gc(a2-3)Gal(b1-4)GlcNAc(b1-3)Gal(b1-4)GlcNAc
# In short: as §1
# [34] = target: Neu5Gc(a2-8)Neu5Gc(a2-6)Gal(b1-4)GlcNAc
# In short: as §1
# [35] = target: Neu5Gc(b2-6)Gal(b1-4)GlcNAc
# In short: as §1
binder,measurement,setting,value
B1,glycan array binding signal (z-score),[1],-0.265
same,glycan array binding signal (z-score),[2],-0.295
same,glycan array binding signal (z-score),[3],-0.281
same,glycan array binding signal (z-score),[4],-0.212
same,glycan array binding signal (z-score),Neu5Ac(a2-6)GalNAc,-0.23
same,glycan array binding signal (z-score),[5],-0.241
same,glycan array binding signal (z-score),[6],-0.293
same,glycan array binding signal (z-score),[7],-0.239
same,glycan array binding signal (z-score),[8],-0.227
same,glycan array binding signal (z-score),Neu5Ac(a2-8)Neu5Ac,-0.226
same,glycan array binding signal (z-score),[9],-0.247
same,glycan array binding signal (z-score),[10],-0.26
same,glycan array binding signal (z-score),[11],-0.211
same,glycan array binding signal (z-score),[12],-0.224
same,glycan array binding signal (z-score),[13],-0.238
same,glycan array binding signal (z-score),[14],-0.238
same,glycan array binding signal (z-score),[15],-0.246
same,glycan array binding signal (z-score),[16],-0.237
same,glycan array binding signal (z-score),[17],-0.315
same,glycan array binding signal (z-score),[18],-0.227
same,glycan array binding signal (z-score),[19],-0.221
same,glycan array binding signal (z-score),[20],-0.228
same,glycan array binding signal (z-score),[21],-0.233
same,glycan array binding signal (z-score),Neu5Ac(b2-6)GalNAc,-0.239
same,glycan array binding signal (z-score),[22],-0.199
same,glycan array binding signal (z-score),[23],-0.226
same,glycan array binding signal (z-score),[24],-0.232
same,glycan array binding signal (z-score),[25],-0.235
same,glycan array binding signal (z-score),[26],-0.249
same,glycan array binding signal (z-score),Neu5Gc(a2-3)Gal(b1-4)Glc,-0.222
same,glycan array binding signal (z-score),[27],-0.232
same,glycan array binding signal (z-score),[28],-0.262
same,glycan array binding signal (z-score),[29],-0.253
same,glycan array binding signal (z-score),[30],-0.231
same,glycan array binding signal (z-score),Neu5Gc(a2-6)GalNAc,-0.202
same,glycan array binding signal (z-score),[31],-0.253
same,glycan array binding signal (z-score),[32],-0.315
same,glycan array binding signal (z-score),[33],-0.309
same,glycan array binding signal (z-score),[34],-0.289
same,glycan array binding signal (z-score),[35],-0.22
